# In the supplement of paper PMC8728848:
# The list shows a part of the results.
# B1: SP16663B-bot-321-25-321 (Bacteroides ovatus) (protein)
# chain: DDDDEVTMNSKFYLSTKVFPVDSYEASLSVILKDNSVVVNELQPNYRFVACATERLSKDVKITADSDDNLVSAYNKANDTEYNILPAENYSFTNKTVTIENGESVSGDSIKIELLNVGSLTTEGGYLLPVTISSIEGNNLDALSSNRGVVYLKIQNIHVNVESGQPAEGTLIADRSGWTVKVAPTTRGDAKNLIDGTNSDVARDGGAEYWLTVDIGKVQTLTGIRNKCYASSYSPTAVEVFTSSDGAKWKSIGAVTISKSGTQYIKFSKAVETRYLKYYVKQGPNTVSLTEFDLYAK
# Key:
# Assay in all cases: glycan array binding signal (z-score within array); higher = stronger binding
# Conditions in all cases: glycan notation: IUPAC condensed, linker removed
# [1] = target: Fuc(a1-2)Gal(b1-4)GlcNAc(b1-3)Gal(b1-4)GlcNAc(b1-3)Gal(b1-4)GlcNAc
# Outline: (§1)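 Arrays were curated from the Consortium for Functional Glycomics database, 3228 in total, and kept only where the protein sequence was available. Binding is expressed as a within-array Z-score. This score was averaged across arrays of the same protein sequence at different concentrations or buffers and across linkers, and negative values can be read as non-binding.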
# [2] = target: Fuc(a1-2)Gal(b1-4)GlcNAc(b1-3)GalNAc
# Outline: as §1
# [3] = target: Fuc(a1-2)Gal(b1-4)GlcNAc(b1-3)[Fuc(a1-2)Gal(b1-4)GlcNAc(b1-6)]GalNAc
# Outline: as §1
# [4] = target: Fuc(a1-2)Gal(b1-4)GlcNAc(b1-3)[Fuc(a1-3)[Gal(b1-4)]GlcNAc(b1-6)]Gal(b1-4)Glc
# Outline: as §1
# [5] = target: Fuc(a1-2)Gal(b1-4)GlcNAc(b1-6)GalNAc
# Outline: as §1
# [6] = target: Fuc(a1-2)Gal(b1-4)GlcNAc6S
# Outline: as §1
# [7] = target: Fuc(a1-2)Gal(b1-4)[Fuc(a1-3)]GlcNAc
# Outline: as §1
# [8] = target: Fuc(a1-2)Gal(b1-4)[Fuc(a1-3)]GlcNAc(b1-2)Man(a1-3)[Fuc(a1-2)Gal(b1-4)[Fuc(a1-3)]GlcNAc(b1-2)Man(a1-6)]Man(b1-4)GlcNAc(b1-4)[Fuc(a1-6)]GlcNAc
# Outline: as §1
# [9] = target: Fuc(a1-2)Gal(b1-4)[Fuc(a1-3)]GlcNAc(b1-2)[Fuc(a1-2)Gal(b1-4)[Fuc(a1-3)]GlcNAc(b1-4)]Man(a1-3)[Fuc(a1-2)Gal(b1-4)[Fuc(a1-3)]GlcNAc(b1-2)Man(a1-6)]Man(b1-4)GlcNAc(b1-4)GlcNAc
# Outline: as §1
# [10] = target: Fuc(a1-2)Gal(b1-4)[Fuc(a1-3)]GlcNAc(b1-3)Gal(b1-4)[Fuc(a1-3)]GlcNAc
# Outline: as §1
# [11] = target: Fuc(a1-2)Gal(b1-4)[Fuc(a1-3)]GlcNAc(b1-3)Gal(b1-4)[Fuc(a1-3)]GlcNAc(b1-3)Gal(b1-4)[Fuc(a1-3)]GlcNAc
# Outline: as §1
# [12] = target: Fuc(a1-2)Gal(b1-4)[Fuc(a1-3)]GlcNAc(b1-3)GalNAc
# Outline: as §1
# [13] = target: Fuc(a1-2)Gal(b1-4)[Fuc(a1-3)]GlcNAc(b1-3)[Neu5Ac(a2-6)Gal(b1-4)GlcNAc(b1-6)]Gal(b1-4)Glc
# Outline: as §1
# [14] = target: Fuc(a1-2)Gal3S(b1-4)GlcNAc
# Outline: as §1
# [15] = target: Fuc(a1-2)Gal6S(b1-3)GlcNAc
# Outline: as §1
# [16] = target: Fuc(a1-2)Gal6S(b1-3)GlcNAc6S
# Outline: as §1
# Fuc(a1-2)Gal6S(b1-4)Glc = target: Fuc(a1-2)Gal6S(b1-4)Glc
# Outline: as §1
# [17] = target: Fuc(a1-2)Gal6S(b1-4)Glc6S
# Outline: as §1
# Fuc(a1-2)[Gal(a1-3)]Gal = target: Fuc(a1-2)[Gal(a1-3)]Gal
# Outline: as §1
# [18] = target: Fuc(a1-2)[Gal(a1-3)]Gal(b1-3)GalNAc
# Outline: as §1
# [19] = target: Fuc(a1-2)[Gal(a1-3)]Gal(b1-3)GalNAc(b1-3)Gal(a1-4)Gal(b1-4)Glc
# Outline: as §1
# [20] = target: Fuc(a1-2)[Gal(a1-3)]Gal(b1-3)GlcNAc
# Outline: as §1
# [21] = target: Fuc(a1-2)[Gal(a1-3)]Gal(b1-3)GlcNAc(b1-2)Man(a1-3)[Fuc(a1-2)[Gal(a1-3)]Gal(b1-3)GlcNAc(b1-2)Man(a1-6)]Man(b1-4)GlcNAc(b1-4)GlcNAc
# Outline: as §1
# [22] = target: Fuc(a1-2)[Gal(a1-3)]Gal(b1-3)GlcNAc(b1-2)Man(a1-3)[Fuc(a1-2)[Gal(a1-3)]Gal(b1-3)GlcNAc(b1-2)Man(a1-6)]Man(b1-4)GlcNAc(b1-4)[Fuc(a1-6)]GlcNAc
# Outline: as §1
# [23] = target: Fuc(a1-2)[Gal(a1-3)]Gal(b1-3)GlcNAc(b1-3)GalNAc
# Outline: as §1
# [24] = target: Fuc(a1-2)[Gal(a1-3)]Gal(b1-3)GlcNAc(b1-6)GalNAc
# Outline: as §1
# [25] = target: Fuc(a1-2)[Gal(a1-3)]Gal(b1-4)Glc
# Outline: as §1
# [26] = target: Fuc(a1-2)[Gal(a1-3)]Gal(b1-4)GlcNAc
# Outline: as §1
# [27] = target: Fuc(a1-2)[Gal(a1-3)]Gal(b1-4)GlcNAc(b1-2)Man
# Outline: as §1
# [28] = target: Fuc(a1-2)[Gal(a1-3)]Gal(b1-4)GlcNAc(b1-2)Man(a1-3)[Fuc(a1-2)[Gal(a1-3)]Gal(b1-4)GlcNAc(b1-2)Man(a1-6)]Man(b1-4)GlcNAc(b1-4)GlcNAc
# Outline: as §1
binder,measurement,setting,value
B1,glycan array binding signal (z-score),[1],-0.369
same,glycan array binding signal (z-score),[2],-0.106
same,glycan array binding signal (z-score),[3],-0.088
same,glycan array binding signal (z-score),[4],-0.632
same,glycan array binding signal (z-score),[5],-0.35
same,glycan array binding signal (z-score),[6],-0.147
same,glycan array binding signal (z-score),[7],-0.253
same,glycan array binding signal (z-score),[8],-0.139
same,glycan array binding signal (z-score),[9],-0.394
same,glycan array binding signal (z-score),[10],-0.392
same,glycan array binding signal (z-score),[11],-0.007
same,glycan array binding signal (z-score),[12],0.682
same,glycan array binding signal (z-score),[13],-0.138
same,glycan array binding signal (z-score),[14],0.461
same,glycan array binding signal (z-score),[15],-0.561
same,glycan array binding signal (z-score),[16],-0.097
same,glycan array binding signal (z-score),Fuc(a1-2)Gal6S(b1-4)Glc,0.316
same,glycan array binding signal (z-score),[17],0.45
same,glycan array binding signal (z-score),Fuc(a1-2)[Gal(a1-3)]Gal,0.758
same,glycan array binding signal (z-score),[18],0.341
same,glycan array binding signal (z-score),[19],-0.892
same,glycan array binding signal (z-score),[20],-0.303
same,glycan array binding signal (z-score),[21],-0.105
same,glycan array binding signal (z-score),[22],-0.169
same,glycan array binding signal (z-score),[23],-0.725
same,glycan array binding signal (z-score),[24],-0.437
same,glycan array binding signal (z-score),[25],-0.354
same,glycan array binding signal (z-score),[26],-0.016
same,glycan array binding signal (z-score),[27],0.212
same,glycan array binding signal (z-score),[28],0.346
